# Measurements taken from ChEMBL document CHEMBL1157539, “Thousands of chemical starting points for antimalarial lead identification” (Nature, 2010).
# The full ranking holds about 13,000 compounds; the median of “IFI” is about 4, and the highest 2% start at about 17. The list shows a part of the results.
# Experiment: GSK_TCMDC: Inhibition Frequency Index (IFI). The number of non-kinase HTS assays where a compound showed > 50 % inhibition, expressed as a percentage of the number of such assays in which the compound was tested (-0 is zero)
# Format: functional
row,Compound,IFI
1,COc1ccc2c(c1)CCN(CCN1CCC(CNC(=O)c3ccc(-c4ccc(C#N)cc4)cc3)CC1)C2,7.21%
2,O=c1cc(-c2ccc3ccccc3c2)[nH]c2ccccc12,1.82%
3,Cc1[nH]c(C)c(-c2ccc(CCc3ccc(C(F)(F)F)cc3)nc2)c(=O)c1Cl,4.46%
4,Oc1cccc(Nc2ccnc3cc(-c4ccccn4)ccc23)c1,8.16%
5,COCCNCc1ncsc1-c1ccc2c(Nc3cc(O)c(Cl)cc3F)ccnc2c1,5.26%
6,CCN(CC)CCN(Cc1ccc(-c2ccc(C(F)(F)F)cc2)cc1)C(=O)Cn1c(CCc2cc(F)ccc2F)nc(=O)c2ccccc21,5.59%
7,COc1cc(Nc2ccnc3cc(-c4ccncc4)ccc23)cc(OC)c1OC,3.68%
8,CCCCCN1CCC(NS(=O)(=O)c2cccc(C(=O)Nc3ccc(C(F)(F)F)cc3)c2)C1 (stereo not given),12.9%
9,CCN(CC)CCN1C(=O)c2oc3ccc(F)cc3c(=O)c2C1c1cccc(Cl)c1 (stereo not given),3.92%
10,COc1ccc2nccc([C@@H](O)CN3CCC(NCc4cc5cccc(O)c5c(=O)[nH]4)CC3)c2c1,0.73%
11,Cc1nc(C)c(-c2ccc(Oc3ccc(Cl)cc3Cl)cc2)c(O)c1Br,1.52%
12,COc1cc(C2C(Oc3ccccc3)C(=O)N2Cc2ccc(F)cc2)cc(OC)c1OC (stereo not given),1.19%
13,c1ccc(-c2cc(NCCCCCCCCNc3cc(-c4ccccc4)nc4ccccc34)c3ccccc3n2)cc1,10%
14,NCc1ccc(Nc2nccc(Nc3ccc(-c4ccccc4)cc3)n2)cc1,13.3%
15,O=C(/C=C/c1ccc(Cl)c(Cl)c1)NCCCCCN1CCC(NC(=O)Nc2ccccc2Cl)CC1,7.28%
16,O=C(c1cccc(-c2noc(C(F)(F)F)n2)c1)N1CCN(c2nsc3ccccc23)CC1,2.94%
17,Cc1cccc2nc(-c3cccc(-c4cccc(NC(=O)c5c[nH]cn5)c4)c3)[nH]c12,3.77%
18,COc1ccc(NC(=O)c2cc(NC(=O)C3(N)CC3)c(=O)n(Cc3ccc(C(N)=O)cc3)c2)cc1,5%
19,COc1cccc(CN2CCC(C(=O)Nc3ccc(-c4nc5ccccc5[nH]4)cc3)CC2)c1,-0%
20,CN(CCCCCNC(=O)/C=C/c1ccc(Cl)c(Cl)c1)CCc1c[nH]c2ccccc12,9.09%
21,C#CCNCc1ccc(-c2cccc(-c3nc4cccc(C)c4[nH]3)c2)cc1,3.96%
22,NC(=O)C1CCN(Cc2cccc(-c3cccc(-c4nc5cc(F)ccc5[nH]4)c3)c2)CC1,0.98%
23,OCCN1CCN(c2nc(Nc3cccc(F)c3)c3cnn(-c4ccccc4)c3n2)CC1,10.9%

row,Compound,IFI
1,CC(=O)Nc1ccc(-c2nc3ccc(-c4nc5ccc(NC(C)=O)cc5[nH]4)cc3[nH]2)cc1,0.74%
2,Nc1nccc2ccc(-c3ccsc3)cc12,10.1%
3,CCOC(=O)C1CCN(CCCNC(=O)/C(=C/C=C/c2cc3cc(Cl)c(Cl)cc3[nH]2)OC)CC1,8.46%
4,COc1ccc(C(C(=O)NC2CCN(C[C@H](O)c3ccnc4ccc(OC)cc34)CC2)N2CCN(c3ccc(F)cc3)CC2)cc1 (stereo not given in full),0%
5,O=C(C=Cc1ccc(F)cc1)NC1CCC(CCN2CCc3ccc(-c4cnccn4)cc3CC2)CC1 (stereo not given),6.87%
6,CN(C)CCOc1cc(O)c2c(c1)OC(C)(C)C=C2c1cccs1,0.72%
7,Cc1cc(C=C(P(=O)(OC(C)C)OC(C)C)P(=O)(OC(C)C)OC(C)C)c2ccccc2c1O,4.72%
8,Cc1cc(N[C@@H](Cc2ccccc2)C(=O)NC2CCCC2)nc(Nc2ccccc2)n1,7.32%
9,CCCCc1ccc(NC(=O)Nc2cccc(CCNCc3ccccc3)c2)cc1,7.75%
10,N#Cc1cncc(-c2nc3c(N4CCC(Cc5ccccc5)CC4)cccc3n2C2CCNC2)c1 (stereo not given),2.8%
11,O=C(Nc1cc(=O)[nH]c2nc(-c3ccccc3)nn12)C1CCCCC1,-0%
12,COCCCNC(=O)c1ccc(O)c(-c2cc(Cl)cc(Cl)c2)c1,0.74%
13,CC(C)c1ccc(NC(=O)c2ccc(NCCCN(C)Cc3ccccc3)c([N+](=O)[O-])c2)cc1,2.96%
14,CN1CCN(CCCN(Cc2cccc(-c3cccc(CNCc4ccc5c(c4)OCO5)c3)c2)C(=O)CCC2CCCC2)CC1,10.9%
15,CCOc1cc(C)ccc1C1CCN(CCCCNC(=O)c2cnc(-c3ccc(C(F)(F)F)cc3)[nH]2)CC1,0.71%
16,COc1ccc(Cn2c(Nc3cccc(C(F)(F)F)c3)nc3cc(C(=O)NCCN4CCCC4)ccc32)cc1Cl,4.44%
17,O=C(NC1CCN(c2ncc(C(F)(F)F)cc2Cl)CC1)c1cccs1,-0%
18,CS(=O)(=O)c1ccc(CNCc2ccc(-c3ccc(-c4nc5cc(C(F)(F)F)ccc5[nH]4)cc3)cc2)cc1,6.8%
19,COc1ccc(CNCCCCCCNCCc2ccc(Cl)cc2)cc1OC,4.07%
20,Nc1cccc(CNCc2ccc(-c3ccc(-c4nc5cc(F)ccc5[nH]4)s3)cc2)c1,8.57%
21,S=C(Nc1ccc(Cl)cc1)Nc1ccc(Nc2ccccc2)cc1,8.15%
22,CCCN(CCC)CCCOc1ccc(C(=O)c2c(-c3ccc(OCCCN(CCC)CCC)cc3)oc3ccc(Cl)cc23)cc1,16.9%
23,Cc1ccnc(-n2c(C)cc(C=C3SC(=Nc4ccccc4)N(Cc4ccco4)C3=O)c2C)c1,3.65%

row,Compound,IFI
1,O=C(/C=C/c1ccc(Cl)c(Cl)c1)NCCCCCN1CCCC(C(=O)Nc2ccc(Cl)cc2)C1 (stereo not given),12.3%
2,CCNc1cc(C(=O)N[C@@H](Cc2ccccc2)[C@H](O)CN[C@@H](C)c2ccccc2)cc(N2CCCC2=O)c1,-0%
3,COc1cc2nc(N3CCC(CNC(=O)c4ccc(-c5ccc(O)cc5)cc4)CC3)nc(N)c2cc1OC,5%
4,Nc1ncc(-c2ccccc2)cc1-c1nc2cc(Cl)c(F)cc2[nH]1,11.6%
5,CCC(N)(C#Cc1ccc(-c2c(C)[nH]c(C)c(Br)c2=O)cc1)CC,0.91%
6,CCCc1cc(NCc2ccncc2)nc(Nc2ccc(F)cc2)n1,0%
7,COc1ccc(C(=O)N2CCC3(CC2)C(=O)N(CC(=O)NC2CCCCC2)CN3c2ccccc2)c(OC)c1,0%
8,COc1cc(C(=O)Nc2ccc(-c3nc4ccccc4[nH]3)cc2)cc(OC)c1OC,1.4%
9,O=C(Nc1ccccc1)OCCOc1ccc(CC2SC(=O)NC2=O)cc1 (stereo not given),2.84%
10,COc1ccc(-c2cccc(NC(=O)c3ccc(Cl)cc3)c2)cc1CN1CCCC1,6.8%
11,COc1ccc(NC(=O)[C@H](CC(C)C)Nc2cc(C)nc(NCC3CCCCC3)n2)cc1,13.9%
12,N=C(N)NN=Cc1c2ccccc2c(Cl)c2c(Cl)cccc12,11.3%
13,COc1ccccc1-c1sccc1C(=O)NC1(c2cc(Cl)cc(Cl)c2)CCCC1,3.15%
14,COc1ccc(C2CCN(CCN3CCC(NC(=O)c4cccc(-c5ccncc5)c4)CC3)CC2)c(OC)c1,0.79%
15,O=c1[nH]nc(-c2ccc(N3CCCC3)c([N+](=O)[O-])c2)c2ccccc12,1.42%
16,O=C(NC1CCC(CCN2CCc3ccc(-c4cnccn4)cc3CC2)CC1)c1cccc(-n2cccn2)c1 (stereo not given),5.3%
17,Fc1cccc(Nc2nc(NCc3ccc(Cl)c(Cl)c3)nc(Nc3cccc(F)c3)n2)c1,7.69%
18,Cc1cnc(N2CCN(CC3CCN(C)CC3)CC2)nc1Oc1ccc(-n2ccnc2)cc1,0.97%
19,COc1ccc(C=NNc2nc3ccccc3[nH]2)cc1O,-0%
20,COc1ccc(NC(=O)CSc2nc(-c3ccccc3Cl)ns2)cc1OC,4.76%
21,N#Cc1cccc(Nc2cc(C(F)(F)F)nc(Nc3ccccc3)n2)c1,13.6%
22,CCOCCCNc1nc2cc(OC)c(OC)cc2c2nc(-c3ccccc3)nn12,0.93%
23,COc1ccc2[nH]c(C)cc(=NN=Cc3ccccc3F)c2c1,4.41%

row,Compound,IFI
1,CCNc1cc(C(=O)N[C@@H](Cc2ccccc2)[C@H](O)CN[C@@H]2CCc3ccccc32)cc(N2CCCCS2(=O)=O)c1,0.72%
2,CN(C)Cc1cccc(-c2ccc(NC(=O)c3ccc4c(=O)n(C5CCCCC5)cnc4c3)cc2)c1,7%
3,Cc1cccc(-c2ccc3c(c2)CC(NCc2cccc(-n4ccnc4)c2)C3)c1 (stereo not given),6.98%
4,Oc1ccc(C=NNC(S)=Nc2cccc3ccccc23)c(O)c1,8.82%
5,N#Cc1cccc(CNC(=O)c2cccc(Nc3ccnc4ccc(F)cc34)c2)c1,1.52%
6,CC(Cc1ccc(OCCN2CCN(c3ccccc3)CC2)cc1)NCC(O)c1cccc(Cl)c1F (stereo not given),12%
7,Cc1nc(N)nc(N)c1OCc1ccc(Cl)c(Cl)c1,0.75%
8,O=C(Nc1ccc2nc3n(c(=O)c2c1)CCCCC3)C(=O)N1CCN(c2ccc(F)cc2)CC1,-0%
9,N=C(/N=C(/NCCCCCCN/C(=N/C(=N)NCc1ccc(Cl)c(Cl)c1)N1CCCCC1)N1CCCCC1)NCc1ccc(Cl)c(Cl)c1,18.8%
10,O=C(c1cccc(-c2cccc(-c3nc4cc(C(F)(F)F)ccc4[nH]3)c2)c1)N1CCCCC1CN1CCC(O)C1 (stereo not given),5.36%
11,Cc1ccccc1CNc1ccc2nc(N)nc(N)c2c1,2.29%
12,Cc1ccc(C(NC(=O)Cc2ccccc2)c2ccc3cccnc3c2O)cc1 (stereo not given),7.33%
13,COc1ccc(C2c3cc(OC)c(OC)cc3C(=NO)C2C)cc1OC (stereo not given),6%
14,CC(C)CCN(Cc1cncn1Cc1cccc(Cl)c1)C(=O)c1cncc(-c2ccccc2)c1,6.49%
15,O=C(/C=C/c1ccc(Cl)c(Cl)c1)NCCCCCN1CCC(NC(=O)Nc2cc(Cl)ccc2Cl)CC1,9.87%
16,CCCCOc1ccccc1C(=O)NCc1csc(-c2ccccc2)n1,17%
17,CC(=O)NCCNc1cc(N2CCc3ncnc(Nc4ccc(OCc5c(F)cccc5F)c(Cl)c4)c3C2)ncn1,9.56%
18,CC(=O)Nc1ccc(OCCCCN(Cc2ccccc2C(F)(F)F)c2ccc(C#N)c(C(F)(F)F)c2)c(Cl)c1,0%
19,Cc1nccn1CCNC(=O)CN1CCC2(CCC1=O)CC(=O)c1ccccc1O2 (stereo not given),-0%
20,Cc1cc(-c2ccc3c(c2)CCN(CCC2CCC(NC(=O)/C=C/c4ccccc4F)CC2)CC3)on1 (stereo not given),2.29%
21,C=CCC(C)n1ncc2c3c(N)nc(N)nc3ccc21 (stereo not given),2.22%
